Measured values: paper PMC4336329 (PLoS ONE, 2015)
Out of some 310,000 compounds screened, about 2,200 (0.71%) showed an effect of 50% or more. Effects have a minus sign here. This is one part of the list.

Biological target: human ether-à-go-go-related gene (hERG) potassium channel (human, UniProt Q12809)
Assay: primary screen, population patch clamp on CHO cells stably expressing hERG

Chain of human ether-à-go-go-related gene (hERG) potassium channel (Q12809 whole entry, looked up): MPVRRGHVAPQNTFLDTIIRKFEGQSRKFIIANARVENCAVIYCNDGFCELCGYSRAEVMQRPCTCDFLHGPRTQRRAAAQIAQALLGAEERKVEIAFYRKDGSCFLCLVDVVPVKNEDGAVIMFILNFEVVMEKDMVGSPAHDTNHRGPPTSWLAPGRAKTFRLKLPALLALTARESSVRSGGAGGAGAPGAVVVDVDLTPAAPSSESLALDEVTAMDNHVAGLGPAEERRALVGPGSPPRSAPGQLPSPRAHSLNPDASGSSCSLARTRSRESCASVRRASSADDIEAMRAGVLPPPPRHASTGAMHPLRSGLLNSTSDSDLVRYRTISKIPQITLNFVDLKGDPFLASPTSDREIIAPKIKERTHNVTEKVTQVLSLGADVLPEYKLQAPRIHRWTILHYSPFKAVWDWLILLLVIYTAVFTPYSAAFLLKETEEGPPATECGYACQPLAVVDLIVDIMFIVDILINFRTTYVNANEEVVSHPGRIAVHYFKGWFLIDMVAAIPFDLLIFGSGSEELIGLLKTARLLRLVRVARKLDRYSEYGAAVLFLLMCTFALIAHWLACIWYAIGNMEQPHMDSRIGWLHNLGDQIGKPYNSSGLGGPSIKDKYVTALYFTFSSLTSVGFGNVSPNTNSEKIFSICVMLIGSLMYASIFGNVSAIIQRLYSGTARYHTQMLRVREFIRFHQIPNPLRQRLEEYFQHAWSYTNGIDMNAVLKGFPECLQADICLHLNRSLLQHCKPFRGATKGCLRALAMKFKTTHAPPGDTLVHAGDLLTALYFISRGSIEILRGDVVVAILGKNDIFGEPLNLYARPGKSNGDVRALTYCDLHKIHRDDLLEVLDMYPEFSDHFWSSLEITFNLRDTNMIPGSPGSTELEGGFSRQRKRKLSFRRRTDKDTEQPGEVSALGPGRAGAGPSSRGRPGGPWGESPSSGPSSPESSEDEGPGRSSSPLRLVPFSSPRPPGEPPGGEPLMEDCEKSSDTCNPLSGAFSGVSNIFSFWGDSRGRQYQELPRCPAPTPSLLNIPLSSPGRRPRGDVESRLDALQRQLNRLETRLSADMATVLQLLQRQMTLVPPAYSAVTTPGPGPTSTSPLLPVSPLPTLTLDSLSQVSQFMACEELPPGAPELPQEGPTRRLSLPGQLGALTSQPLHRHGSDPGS

| Structure (SMILES) | hERG current change (%, negative = inhibition) at 1uM [%] |
| --- | --- |
| COc1ccc(C(C)=O)c(OC(=O)c2ccc(OC)c(OC)c2)c1 | 12.3 |
| O=C(NCc1ccc2c(c1)OCO2)c1ccc(CSCc2ccccc2Cl)o1 | 5.57 |
| Cc1ccnc(NC(=O)c2cccc(S(=O)(=O)N3CCN(c4ccc(F)cc4)CC3)c2)c1 | -2.47 |
| CCC(C)N1C(=O)S/C(=C/c2ccc3c(c2)n(C)c(=O)n3C)C1=O (centres unmarked) | 12.4 |
| O=C(O)CC(SCC(=O)Nc1ccccc1)C(=O)O (centres unmarked) | 8.5 |
| O=C(Nc1ccc(Cl)cc1)OC1CN2CCC1CC2 (centres unmarked) | 10.1 |
| Cc1cc(C)nc(Nc2ccc(C(=O)O)cc2)n1.Cl | -1.74 |
| COc1ccc2ccccc2c1CNCCN1CCOCC1.Cl | 17.8 |
| COCCn1cnc2c1c(=O)n(CC(=O)O)c(=O)n2Cc1ccccc1 | 13.4 |
| CCCCNC(=O)C1C2C=CC(C2)C1C(=O)O (centres unmarked) | 11.5 |
| CC1=C(C(=O)Nc2ccccc2)C(c2ccco2)NC(=O)N1 (centres unmarked) | 12 |
| O=C1c2ccccc2S(=O)(=O)N1CCS(=O)(=O)c1ccc(F)cc1 | 3.72 |
| CCN1C=C(Cc2cccs2)C2=C(C1)C(c1cccs1)C(C#N)=C(N)O2 (centres unmarked) | 3.03 |
| CCOc1ccc(S(=O)(=O)N/N=C(\C)Cc2ccc(OC)cc2)cc1 | 8.36 |
| CCc1noc(C)c1C(=O)N1CCN(S(=O)(=O)c2ccc(C)cc2)CC1 | 7.83 |
| COC(=O)C1=C(c2cccc3c2S(=O)(=O)c2ccccc2-3)C[C@@H]2CC[C@H]1N2C(=O)N1CCOCC1 | 0.516 |
| Cc1ccc(C(c2nnnn2CS(=O)(=O)c2ccc(C)cc2)N2CCN(c3ncccn3)CC2)cc1 (centres unmarked) | 11.7 |
| COC(=O)c1cccc(C23CC4(C2)[C@H](CN(CC2CCCCC2)[C@@H]4c2ccccc2)C3c2ccccc2)c1 (some centres unmarked) | -1.4 |
| CC(NC(=O)[C@H](C)N1C(=O)N2CCc3c([nH]c4ccccc34)[C@@]2(C)C1=O)c1ccccc1 (some centres unmarked) | -1.95 |
| Cc1ccc(NC(=O)Cc2ccc(Cl)cc2)nc1 | 14.1 |
| O=[N+]([O-])c1ccc(Oc2ccc(-c3cnc4ccccc4n3)cc2[N+](=O)[O-])cc1 | 12.7 |
| CCSc1cc(N2CCOCC2)nc(-c2ccc(Cl)cc2)n1 | 0.632 |

| Structure (SMILES) | hERG current change (%, negative = inhibition) at 1uM [%] |
| --- | --- |
| O=C(C1CCCN(c2ncnc3c2nc2n3CCCCC2)C1)N1CCCCC1 (centres unmarked) | 2.43 |
| CN1C(=O)CC(NNC(=O)c2ccc(Cl)cc2)C1=O (centres unmarked) | 1.38 |
| COc1ccc(C(=O)Nc2ccc(S(=O)(=O)N3CCc4ccccc43)cc2)cc1 | 12 |
| CC1=C(C#N)C(NC(=O)c2ccco2)(C(F)(F)F)C(=O)N1 (centres unmarked) | 9.66 |
| COC(=O)C1=C(C)N(CC2CC2)C(=O)N[C@H]1c1ccc(Br)cc1 | 5.25 |
| Cc1cc(NC(=O)COc2ccccc2C)ccc1NC(=O)c1ccco1 | 9.4 |
| Cc1cc(NC(=O)Cn2nc(C(=O)O)c3ccccc3c2=O)ccc1Br | 5.92 |
| COc1cc2c(cc1OC)C(C)N(C(=O)c1nccnc1C(=O)O)CC2 (centres unmarked) | 11.7 |
| O=S(=O)(NCC(c1cccnc1)N1CCN(Cc2ccccc2)CC1)c1ccc(F)cc1 (centres unmarked) | -42.6 |
| O=C(COc1ccccc1Br)c1ccc2c(c1)OCO2 | -13.7 |
| C/C(=C\c1ccccc1F)C(=O)c1c(C)cc(C)[nH]c1=O | 11.4 |
| Cc1cc(SCC(=O)OCC(=O)N2CCCC2=O)c(C)cc1Br | 5.68 |
| CCCCCCc1nc(C(N)=O)c2[nH]c(=O)n(-c3ccccc3F)c2n1 | 10.1 |
| Cc1occc1C(=O)NNC(=O)c1ccccc1Br | 3.06 |
| CC1(C)CC(=O)C2=C(C1)N=C1SCCC(=O)N1C2c1ccc(C(F)(F)F)cc1 (centres unmarked) | 0.759 |
| O=C(CSc1nc(=O)n(CCCN2CCOCC2)c2c1CCCC2)Nc1cccc(Cl)c1 | -13 |
| COc1ccc(/C=C2\SC(=O)N(CCC(=O)Nc3ccccc3)C2=O)cc1OC | 5.38 |
| COc1ccccc1C1=CC(=O)C[C@H](c2ccc3c(c2)OCO3)C1 | 18.1 |
| CC(O)CNc1ccc([N+](=O)[O-])cc1S(=O)(=O)N1CCOCC1 (centres unmarked) | 12 |
| COc1cccc(/C=N\NC(=O)Cn2nnc3ccccc32)c1O | 20.1 |
| CC12CC(c3ccccc3O1)C(/C(N)=N/NC(=O)c1ccc(F)cc1)C(=O)N2 (centres unmarked) | -2.99 |
| Cc1ccc(S(=O)(=O)N2CCN(C(=O)CCc3c[nH]c4ccccc34)CC2)c(C)c1 | 12.6 |

| Structure (SMILES) | hERG current change (%, negative = inhibition) at 1uM [%] |
| --- | --- |
| CCCC1(C(=O)OC)NC(c2ccc(OC)cc2OC)C2C(=O)N(c3cccc(C(C)=O)c3)C(=O)C21 (centres unmarked) | 5.22 |
| Cc1cc(=O)n2nc(N3CCCC(C(=O)NCc4ccc(Cl)cc4)C3)sc2n1 (centres unmarked) | -21.5 |
| CCOc1ccccc1-n1c(SCC(=O)N2CCCC2)nnc1-c1ccc(O)cc1 | 10.6 |
| N#CC(c1ccccc1)N1CCOCC1 (centres unmarked) | 17.7 |
| CCN(CC)CCN(C(=O)CCS(=O)(=O)c1ccccc1)c1nc2cc(OC)c(OC)cc2s1.Cl | -2.65 |
| O=C(CN(Cc1ccco1)C(=O)CNS(=O)(=O)c1ccc(Cl)cc1)NCc1ccc(F)cc1 | -15.8 |
| Cc1nc2c(c(=O)c3ccccc3n2C)c(=O)n1C1CCCCCC1 | 11.9 |
| CN(Cc1ccc(OC(F)F)cc1)C(=O)c1ccc2c(=O)n3c(nc2c1)CCC3 | -17 |
| Cc1nn(-c2ccccc2)cc1/C=N/NS(=O)(=O)c1ccccc1 | -4.63 |
| COc1ccc(NS(=O)(=O)Cc2ccccc2)cc1OC | -3.91 |
| O=C(NC(=S)Nc1ccccc1Br)c1ccc2c(c1)OCO2 | -67.9 |
| O=C1C2C3C=CC(C3)C2C(=O)N1c1cccc(-c2nc3ccccc3o2)c1 (centres unmarked) | 20.5 |
| CC1(C)CC(=O)C2=C(C1)Nc1nc(SCCN3CCOCC3)[nH]c(=O)c1C2c1cccs1 (centres unmarked) | 8.75 |
| COc1ccc([N+](=O)[O-])cc1N=Cc1c(O)n(CCc2ccccc2)c(=O)n(C(C)C)c1=O | 8.09 |
| Cc1nccn1CC(=O)O | 15.1 |
| Cc1ccc(C)n1Cc1ccccc1Cl | 12.7 |
| COc1cc(N2CCOCC2)ccc1C=C(C#N)C#N | -5.91 |
| COc1cc(OC)c(OC)cc1/C=N/NC(=O)c1ccc2nc[nH]c2c1 | 13 |
| COc1cccc(-c2nc(SCC(=O)Nc3nc(-c4ccccc4)c(C)s3)[nH]c(=O)c2C#N)c1 | 18.3 |
| CC(C)C(=O)NC(c1ccccc1)c1cc([N+](=O)[O-])c2cccnc2c1O (centres unmarked) | -5.21 |
| O=C(CCSCCC(=O)NCc1ccccc1)NCc1ccccc1 | 3.39 |
| O=C(Nc1ccccc1Cl)C1CCCN(S(=O)(=O)c2ccc(F)cc2)C1 (centres unmarked) | 4.6 |

| Structure (SMILES) | hERG current change (%, negative = inhibition) at 1uM [%] |
| --- | --- |
| COc1cccc(S(=O)(=O)N2CCN(c3ccccc3F)CC2)c1 | 5.53 |
| CSc1ncnc2c1cnn2-c1ccc(C)cc1C | 1.88 |
| COc1ccc(OC)c(NC(=O)c2ccccc2N(Cc2ccccc2)S(C)(=O)=O)c1 | 11.4 |
| COc1ccccc1-c1nnc(SCCN2CCOCC2)n1-c1ccc(C)cc1 | -2.44 |
| Cc1ccc(C(C)C)cc1S(=O)(=O)Nc1cccnc1 | 15.7 |
| CC1CCC2(CC1)NC(=O)N(CC(=O)Nc1ccc3c(c1)CCC3)C2=O (centres unmarked) | 0.161 |
| Cc1csc(SCC(=O)Nc2ccc(S(=O)(=O)N3CCCC3)cc2)n1 | 9.7 |
| CCOC(=O)N1CCN(C(=O)CCCn2c(=O)[nH]c3ccccc3c2=O)CC1 | -2.67 |
| Cc1ccc(CSc2ncn(-c3ccccc3)n2)cc1 | 7.18 |
| CCOc1ccc(Br)cc1C(=O)N/N=C/c1cccc(C)n1 | 15.2 |
| N#CCC(=O)Nc1ccc(C(=O)OCC(=O)NCc2ccc3c(c2)OCO3)cc1 | 11.5 |
| Cc1ccc(NC(=O)c2ccc3c(c2)OCO3)cc1S(=O)(=O)N1CCOCC1 | 13.8 |
| COc1ccc(NC(=O)COc2nsnc2N2CCOCC2)c(OC)c1 | 17.2 |
| O=C(O)CC(c1cccc(C(F)(F)F)c1)N1CCS(=O)(=O)CC1 (centres unmarked) | 10.7 |
| O=C(Nc1cccc(C(F)(F)F)c1)c1csc(-c2ccncc2)n1 | -82.4 |
| O=C(NNC(=O)c1cccc(S(=O)(=O)N2CCN(c3ccccc3)CC2)c1)c1ccc(Cl)cc1 | -32.6 |
| Cc1cc(C)n(CCC(=O)N/N=C/c2cccc([N+](=O)[O-])c2)n1 | 5.65 |
| CCCCn1c(N)c(N(CC(C)C)C(=O)COC(=O)c2ccccc2NCCO)c(=O)[nH]c1=O | 11.1 |
| CCNc1nc(NCC)nc(OCCOC(C)=O)n1 | 10.7 |
| Cc1[nH][nH]c(=O)c1C(c1ccc(-c2cccc(C(=O)O)c2)o1)c1c(C)[nH][nH]c1=O | 18.6 |
